Reference: PubChem BioAssay AID485294 (National Center for Advancing Translational Sciences (NCATS), 2010)
The whole screen tested about 370,000 compounds, of which about 150 (0.041%) were called active. Inconclusive results, whose numbers are uncertain, are shown with a selection of clear calls. Calls follow the shape of the dose curve; as a rule, active = well fitted inhibition curve with a large enough effect; inconclusive = small, poorly fitted or top-dose-only effect; inactive = flat fitted curve, though single readings scatter. Potencies of inconclusive entries are left out as doubtful fits.

The compounds below were run against Beta-lactamase (Escherichia coli (strain K12)) (UniProt P00811) (assay: qHTS Inhibitors of AmpC Beta-Lactamase (assay with detergent)). Conditions: AmpC hydrolysis of nitrocefin, absorbance 480 nm, 0.01% Triton; activity change, negative = inhibition: at 114 µM (top of the series).
Sequence of UniProt P00811 (P00811 whole entry, looked up): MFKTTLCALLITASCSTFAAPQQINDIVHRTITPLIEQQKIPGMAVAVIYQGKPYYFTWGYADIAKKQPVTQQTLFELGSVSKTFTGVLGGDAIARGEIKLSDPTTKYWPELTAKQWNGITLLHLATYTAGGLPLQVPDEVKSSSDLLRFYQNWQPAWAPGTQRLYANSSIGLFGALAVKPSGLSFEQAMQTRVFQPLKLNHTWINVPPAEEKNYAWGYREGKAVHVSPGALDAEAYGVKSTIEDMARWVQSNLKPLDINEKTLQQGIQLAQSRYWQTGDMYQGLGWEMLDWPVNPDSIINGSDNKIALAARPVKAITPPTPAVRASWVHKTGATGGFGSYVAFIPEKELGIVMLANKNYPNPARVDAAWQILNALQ
Method in brief: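 20 mM phosphate pH 7.0 + 0.01% (detergent screen) or 0.0001% Triton X-100; 5.3 nM AmpC reagent; cpd preinc 15 min RT; nitrocefin (800 uM stock) to start; A480 q20 s × 4 min; Activity was normalised to no-enzyme and no-compound control wells.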
Also: nearly all actives have a fitted effect of over 25% in size.
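For activity change, negative = inhibition in this document: 0% = no-compound wells and -100% = no-enzyme wells.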
Potency is read from the fitted curve at half-maximal effect; tags tell the direction and shape of the fitted curve.

SMILES | Potency | activity change, negative = inhibition
CCN(CC)CCn1c(=N)n(CC(=O)c2ccc(C)cc2)c2ccccc21 | inconclusive [inhibitor, full curve] | 
Cc1ccc(Cl)cc1NC(=O)Nc1c(C)n(C)n(-c2ccccc2)c1=O | inconclusive [inhibitor, partial curve] | 
COCCCN(CCNC(=O)c1ccc(NC2=NC3CS(=O)(=O)CC3S2)cc1)Cc1ccco1 (stereo not given) | inconclusive [inhibitor, full curve] | 
COc1ccc(C(=O)N2CCC(CCC(=O)Nc3cccc(C)c3)CC2)cc1 |  | inactive: -11.8%
Cc1csc(NC(=O)C2CCCCC2)n1 |  | inactive: -11.5%
COc1cc2c(cc1NC(=O)C(C)NCc1ccccc1)oc1ccccc12 (stereo not given) |  | inactive: 12%
Cc1ccc(-n2nc(C)c3c(C)cc(=O)n(CC(=O)Nc4ccc(Br)cc4F)c32)cc1 |  | inactive: 13.7%
COc1cc(OC)c(OC)cc1CNCCc1cccc(F)c1 | inconclusive [inhibitor, partial curve, poor fit] | 
COc1ccc(-n2c(C)cc(/C=N/Nc3nnc(C)n3N)c2C)cc1 | inconclusive [inhibitor, full curve, poor fit] | 
COC(=O)c1ccc(COc2ccccc2/C=N/NS(=O)(=O)c2ccccc2)cc1 |  | inactive: -8.9%
CC/C(=N\NC(=O)c1ccc(N(C)C)cc1)c1ccccc1 | inconclusive [inhibitor, full curve] | 
Cc1cccc(NC(=O)c2sc(C)nc2C)c1 |  | inactive: 0.392%
O=C(Nc1ccc(Br)cn1)c1ccc2ccccc2c1 | inconclusive [inhibitor, full curve, poor fit] | 
Cc1cc(-n2c(C)c3c(C)nnc(C)c3c2C)ccc1N | inconclusive [inhibitor, single point] | 
Cc1nnc(SCC(=O)NC(C)(C)C)n1CCc1ccccc1 |  | inactive: -2.26%
O=C(NNC(=O)c1ccccc1Cl)c1ccncc1 |  | inactive: -16.1%
Fc1ccc(-c2csc3[n+]2CCS3)cc1 | inconclusive [inhibitor, full curve, poor fit] | 
Cc1cc(C)nc(-n2nc(C)cc2Nc2ccccc2)n1 | inconclusive [inhibitor, single point] | 
NS(=O)(=O)c1ccc(NC(=O)COC(=O)C2(c3ccc(F)cc3)CCCC2)cc1 | inconclusive [inhibitor, full curve] | 
Cc1cccc(C(=O)Nc2oc(-c3ccccc3)cc2C#N)c1 | inconclusive [inhibitor, full curve, poor fit] | 
C=CCc1cccc2cc(C(=O)N(C)C)c(=O)oc12 | inconclusive [inhibitor, full curve, poor fit] | 
CCOC(=O)c1ccc(NC(=O)CN2C(=O)CCC2=O)cc1 | inconclusive [inhibitor, single point] | 

SMILES | Potency | activity change, negative = inhibition
CCC1(c2ccccc2)NC(=O)N(CC(=O)N(C)CC(=O)Nc2cccc(OC)c2)C1=O (stereo not given) | inconclusive [inhibitor, full curve, poor fit] | 
CCN(C(=O)CN1CCN(c2ccc(OC)cc2)CC1)c1c(N)n(Cc2ccccc2)c(=O)[nH]c1=O | inconclusive [inhibitor, full curve, poor fit] | 
O=C(CC(Nc1cccc(Cl)c1Cl)C(=O)OCC(=O)c1cccs1)c1ccccc1 (stereo not given) | inconclusive [inhibitor, single point] | 
CCn1ncc(C(=O)Nc2cc(C)on2)c1C | inconclusive [inhibitor, full curve, poor fit] | 
CC1CCN(S(=O)(=O)c2ccc(NC(=O)c3ccccc3F)cc2)CC1 |  | inactive: -5.68%
O=C(c1ccccc1)c1ccc2ccccc2n1 |  | inactive: 4.85%
COC(=O)Cc1ccc(OC(=O)c2cccc(S(=O)(=O)N3CCN(C)CC3)c2)cc1 | inconclusive [inhibitor, full curve] | 
CC1CCCN(c2nc(NCc3ccco3)nc(N)c2[N+](=O)[O-])C1 (stereo not given) | inconclusive [inhibitor, full curve] | 
Cc1cc(C)c(OCCCCCn2ccnc2)c(C)c1 | inconclusive [inhibitor, partial curve, poor fit] | 
CC(=O)Nc1nc(C)c(Cc2ccccc2)c(=O)[nH]1 | inconclusive [inhibitor, full curve] | 
CSc1nnc(NC(=O)c2cc3ccccc3oc2=O)s1 | inconclusive [inhibitor, full curve, poor fit] | 
Nc1ccccc1OCCOCCOc1ccccc1N |  | inactive: -7.32%
COc1cc(N)c(Cl)cc1NC(=O)c1ccccc1 | inconclusive [inhibitor, full curve] | 
CCc1cc(=O)oc2c3c(cc(OCC(=O)NCc4cccnc4)c12)OC(C)(C)CC3 | inconclusive [inhibitor, partial curve] | 
Cc1cc(N2CCN(C)CC2)nc2ccc(NC(=S)NCCCN3CCc4ccccc4C3)cc12 |  | inactive: -2.01%
Cc1ccccc1NC(=O)CN1C(=O)NC(C)(CCc2ccccc2)C1=O (stereo not given) | inconclusive [inhibitor, full curve, poor fit] | 
CCC1=C(OC(=O)N(CC)CC)N2C(=O)OC(=NCCc3c[nH]c4ccccc34)[C@]2(Cc2ccccc2)[C@H]2C1=CC[C@H]1C(=O)N(CC)C(=O)[C@H]12 |  | inactive: -5.7%
COc1ccccc1N/C(N)=N/c1nc(CSc2ccc(C)cc2)cc(=O)[nH]1 | inconclusive [inhibitor, full curve, poor fit] | 
O=C(COC(=O)c1cnccn1)c1ccccc1 | inconclusive [inhibitor, full curve, poor fit] | 
NC(=O)CC[C@@H]1NC(=O)[C@H](CO)NC(=O)c2cc([N+](=O)[O-])cc(I)c2NCC[C@@H](C(N)=O)NC1=O | inconclusive [inhibitor, full curve] | 
O=C(NCCC(=O)N(Cc1ccco1)Cc1cccs1)c1ccc([N+](=O)[O-])cc1 | inconclusive [inhibitor, full curve, poor fit] | 
CCOc1ccc(C2/C(=C(/O)c3ccc(F)cc3)C(=O)C(=O)N2CCCN(C)C)cc1 (stereo not given) | inconclusive [inhibitor, partial curve] | 

SMILES | Potency | activity change, negative = inhibition
CC(=O)N1CCn2c3ccc(C)cc3c3cccc1c32 | inconclusive [inhibitor, single point] | 
CC(=O)Oc1ccc2occ(-c3ccccc3)c2c1 |  | inactive: -18.1%
O=[N+]([O-])c1ccc(N=Nc2ccc(O)cc2O)cc1 | inconclusive [inhibitor, full curve, poor fit] | 
CCOc1ccc(CCNC(=O)CCCc2nnc3n(CC)c(=O)c4sccc4n23)cc1OCC | inconclusive [inhibitor, partial curve, poor fit] | 
Cc1cccc2c1-c1sc(C(=O)NCCCN3CCCC(C)C3)cc1CO2 (stereo not given) | inconclusive [inhibitor, full curve, poor fit] | 
COc1cccc(NC(=O)CN(C)C(C)C(=O)NC(C)c2ccc(Cl)cc2Cl)c1 (stereo not given) | inconclusive [inhibitor, full curve, poor fit] | 
CC1NC(=O)N(C)C2NC(=O)N(C)C(c3ccccc3)C12 (stereo not given) | inconclusive [inhibitor, full curve, poor fit] | 
COc1ccccc1N1CCN(C2CCCN(C(=O)c3cc(C)oc3C)C2)CC1 (stereo not given) | inconclusive [inhibitor, partial curve, poor fit] | 
Nc1nc(=S)[nH]c2c1C1(CCCCC1)Cc1ccccc1-2 | inconclusive [inhibitor, partial curve, poor fit] | 
CCc1ccc(-n2c(=S)sc3c(=O)n(-c4ccccc4C)c(SCC(=O)O)nc32)cc1 | inconclusive [inhibitor, partial curve] | 
CCOC(=O)C1(Cc2ccccc2Cl)CCN(C(=O)CCn2ccnc2C)CC1 | inconclusive [inhibitor, single point] | 
COc1ccc(-c2csc(N3CCC(C(N)=O)CC3)n2)cc1 | inconclusive [inhibitor, full curve, poor fit] | 
COCCCn1c(SCC(=O)N2CC(=O)Nc3ccccc32)nnc1-c1ccoc1C | inconclusive [inhibitor, full curve, poor fit] | 
COc1cccc(Cn2c(NCc3cccnc3)nc3c2c(=O)n(C)c(=O)n3C)c1 | inconclusive [inhibitor, full curve, poor fit] | 
CCOC(=O)N1CCN(c2c(NCCCN3CCCCCC3)c(=O)c2=O)CC1 | inconclusive [inhibitor, partial curve] | 
CN(CCOc1ccccc1)C(=O)C1CCC(=O)N(CCCN2CCCC2=O)C1 (stereo not given) | inconclusive [inhibitor, full curve] | 
COc1ccc(Cl)cc1C(=O)OCC(=O)N(C)CC(=O)Nc1ccc(F)cc1 | inconclusive [inhibitor, full curve, poor fit] | 
CCOc1ccccc1OCCCC(=O)OCC(=O)Nc1cccc(Cl)c1 | inconclusive [inhibitor, single point] | 
COc1ccc(C2c3ccc(O)cc3Oc3ncn4nc(-c5ccco5)nc4c32)cc1OC (stereo not given) |  | inactive: 5.19%
c1ccc2c(c1)nc(N1CCOCC1)c1nncn12 | inconclusive [inhibitor, full curve, poor fit] | 
Cc1ccc(S(=O)(=O)N(Cc2ccccc2)C(C)C)cc1 | inconclusive [inhibitor, full curve, poor fit] | 
